Laboratory results published in PubChem BioAssay AID588342 (National Center for Advancing Translational Sciences (NCATS), 2011).
Among all 360,000 compounds or so, about 25,000 (6.9%) were called active. This list was built around the results that the source calls inconclusive (neither active nor inactive); the mix of calls is not that of the screen. The call rests on the fitted dose curve; in most records, active means well fitted inhibition curve with a large enough effect; inconclusive means small, poorly fitted or top-dose-only effect; inactive means flat fitted curve, though single readings scatter. Potencies beside an inconclusive call are fits to weak or partial responses and may not hold up.
Further: nearly all actives have a fitted effect of over 55% in size.
Potency means the concentration at half of the fitted maximal effect; tags describe the fitted curve by direction and shape.

These molecules were tested against Luciferin 4-monooxygenase (Photinus pyralis) (UniProt P08659) (assay: qHTS profiling assay for firefly luciferase inhibitor/activator using purifed enzyme and Km concentrations of substrates (counterscreen for miR-21 project)). Settings: purified FLuc, luminescence inhibition; series mostly up to 57.5 µM.
Chain of UniProt P08659 (P08659 whole entry, looked up): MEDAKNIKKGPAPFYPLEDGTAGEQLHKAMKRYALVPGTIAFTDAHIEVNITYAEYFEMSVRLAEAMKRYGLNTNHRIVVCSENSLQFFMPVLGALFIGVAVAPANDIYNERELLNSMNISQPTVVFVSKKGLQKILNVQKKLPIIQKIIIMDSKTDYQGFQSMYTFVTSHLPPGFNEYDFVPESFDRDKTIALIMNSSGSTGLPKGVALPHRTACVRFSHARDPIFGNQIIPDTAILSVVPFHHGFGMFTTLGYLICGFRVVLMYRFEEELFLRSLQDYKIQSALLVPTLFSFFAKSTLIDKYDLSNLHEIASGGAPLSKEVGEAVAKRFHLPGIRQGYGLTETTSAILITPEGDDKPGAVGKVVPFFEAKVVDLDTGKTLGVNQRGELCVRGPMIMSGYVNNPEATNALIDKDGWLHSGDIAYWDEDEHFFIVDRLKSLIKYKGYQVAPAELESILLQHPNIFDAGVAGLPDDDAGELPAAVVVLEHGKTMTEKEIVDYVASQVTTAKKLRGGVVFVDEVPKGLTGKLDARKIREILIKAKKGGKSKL
Outline: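 Purified P. pyralis luciferase (10nM final) with 10uM D-luciferin and 10uM ATP (Km levels) in 50mM Tris acetate pH 7.5, 10mM Mg acetate, 0.01% Tween-20, 0.05% BSA; qHTS 6-point titration, ~60 µM downward; luminescence read.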
For `COc1ccc(OC)c(/C=C2\Oc3cc(OCC(=O)N4CCC[C@H]4C(=O)O)ccc3C2=O)c1`, the Potency was inconclusive: 37.9 µM [inhibitor, partial curve, poor fit].
For `O=C(c1ccc(-c2cccc(C(F)(F)F)c2)o1)N1CCN(c2ccccc2)CC1`, the Potency was “inactive”.
`NC(=S)N/N=C1\CC(c2ccc3c(c2)OCCCO3)Oc2ccc(F)cc21` (configuration not stated) was tested, and the Potency was active: 15.1 µM.
In the case of `Cc1ccc(Nc2ncnc3c2nnn3Cc2ccccc2)cc1`, the Potency is reported as inconclusive: 30.1 µM [inhibitor, partial curve, poor fit].
For `CC(C)(C)NC(=O)NC(=O)CN1C(=O)NC(c2ccccc2)(c2ccccc2)C1=O`, the Potency was inconclusive: 37.9 µM [inhibitor, single point].
`Cc1ccc(NCC(=O)N/N=C/c2ccc(C(=O)O)cc2)cc1` was tested, and the Potency was inconclusive: 21.3 µM [inhibitor, partial curve, poor fit].
With `Cc1ccc(N/C=C(\C#N)c2ccc(OCCCF)cc2)cc1` the Potency was “inactive”.
With `CCCc1cc(=O)[nH]c(Nc2cccc(Cl)c2Cl)n1` the Potency was inconclusive: 42.6 µM [inhibitor, partial curve, poor fit].
In the case of `O=C(Nc1ccc(-c2cn3ccsc3n2)cc1)C1COc2ccccc2O1` (configuration not stated), the Potency is reported as active: 26.9 µM.
In the case of `COc1ccc(C(=O)/C=C/c2cn(CC(O)CN3CCN(C)CC3)c3ccccc23)cc1OC` (configuration not stated), the Potency is reported as inconclusive: 37.9 µM [inhibitor, partial curve, poor fit].
For `Fc1ccc(N/N=C/c2cccnc2)c(F)c1`, the Potency was inconclusive: 23.9 µM [inhibitor, partial curve].
For `COc1ccccc1-c1noc(-c2ccc(N3CCC(C)CC3)c([N+](=O)[O-])c2)n1`, the Potency was inconclusive: 21.3 µM [inhibitor, partial curve].
`Oc1csc(Cc2nc(-c3ccc(Br)cc3)cs2)n1` was tested, and the Potency was inconclusive: 2.13 µM [inhibitor, full curve].
For `CSc1ccc(/C=N/NC(=O)c2cccs2)cc1`, the Potency was active: 1.69 µM.
`OCCC1CN(Cc2cnc(-c3ccc(Cl)cc3)nc2)CCN1C1CCCCC1` (configuration not stated) was tested, and the Potency was inconclusive: 33.8 µM [inhibitor, partial curve, poor fit].
With `O=C(NC1CCC(O)CC1)c1cccnc1Sc1ccccc1Cl` (configuration not stated) the Potency was “inactive”.
With `CCN(Cc1ccccc1)C(=O)c1cc(COc2c(F)cccc2F)on1` the Potency was “inactive”.
In the case of `COc1ccccc1Nc1nc(-c2cccc(N3C(=O)c4ccccc4C3=O)c2)cs1`, the Potency is reported as active: 6.75 µM.
For `Cc1ccc(NC(=O)Cc2c(C(=O)O)c(C)cn2C)cc1Cl`, the Potency was inconclusive: 13.5 µM [inhibitor, partial curve].
For `CC(=O)OCc1c(C)cc(C)c(/C=C(/C#N)C(N)=O)c1C`, the Potency was “inactive”.
`Cc1nc(SCc2ccc(Cl)c(Cl)c2)ncc1C(=O)O` was tested, and the Potency was inconclusive: 23.9 µM [inhibitor, single point].
`NC(=O)C1CCN(C(=O)c2ccc3nc(N4CCCCC4)sc3c2)CC1` was tested, and the Potency was inconclusive: 16.9 µM [inhibitor, partial curve].
`O=C(Nc1cccnc1)c1cc(Cl)ccc1Cl` was tested, and the Potency was “inactive”.
For `c1ccc(-n2ncc3c(NC4CCCC4)ncnc32)cc1`, the Potency was active: 4.78 µM.
In the case of `Cc1ccc(C(=O)CSc2nnc3ccccn23)c(C)c1`, the Potency is reported as active: 2.69 µM.
In the case of `Cc1ccccc1OCc1nnc(SCC(=O)Nc2ccc3nc(SCC(=O)NC(C)(C)C)sc3c2)n1C`, the Potency is reported as “inactive”.
`O=C(NCc1ccccc1)Nc1cccn(Cc2c(F)cccc2Cl)c1=O` was tested, and the Potency was active: 13.5 µM.
In the case of `CC(C)C(NC(=O)C1CCCCC1)C(=O)Nc1ccc2c(c1)OCCO2` (configuration not stated), the Potency is reported as active: 6.01 µM.
`COC(=O)c1ccc(/C=C/C(=O)O)cc1` was tested, and the Potency was inconclusive: 21.3 µM [inhibitor, single point].
In the case of `CC(C)c1ccc(NC2CCCN(C(=O)CCc3cnn(C)c3)C2)cc1` (configuration not stated), the Potency is reported as “inactive”.
With `O=C(COc1ccccc1)NCc1ccc2c(c1)CCN2C(=O)c1ccc(F)cc1` the Potency was “inactive”.
`O=C(c1ccc(Cl)cc1)c1cnc2ccccn12` was tested, and the Potency was active: 9.53 µM.
In the case of `Oc1cc(-n2cccn2)c(O)cc1-n1cccn1`, the Potency is reported as active: 16.9 µM.
`Cc1ccc(-n2ncc3c(N4CCCCCC4)ncnc32)cc1` was tested, and the Potency was active: 0.12 µM.
For `O=C(NCCCN1CCOCC1)C(=O)NCC1CCCO1` (configuration not stated), the Potency was inconclusive: 6.75 µM [inhibitor, single point].
With `CCN(c1cccc(C)c1)S(=O)(=O)c1ccc2c3c(cccc13)C(=O)N2` the Potency was “inactive”.
With `Cc1ccc(-c2nc(N3CCOCC3)sc2C(=O)N2CCCCC2)cc1` the Potency was “inactive”.
With `Cc1cc(C)cc(C(=O)OCC(=O)NCCNC(=O)COC(=O)c2cc(C)cc(C)c2)c1` the Potency was inconclusive: 30.1 µM [inhibitor, single point].
In the case of `Cc1cccc(NC(=O)NCC(c2ccc(F)cc2)N2CCN(C)CC2)c1` (configuration not stated), the Potency is reported as inconclusive: 23.9 µM [inhibitor, partial curve, poor fit].
In the case of `Cc1noc(NS(=O)(=O)c2ccc(N/C=C/C(=O)c3cccnc3)cc2)c1C`, the Potency is reported as inconclusive: 37.9 µM [inhibitor, partial curve, poor fit].
In the case of `O=C(Nc1ccccc1C(=O)O)/C(=C/c1ccc([N+](=O)[O-])cc1)NC(=O)c1ccc(Br)o1`, the Potency is reported as inconclusive: 23.9 µM [inhibitor, partial curve].
For `CC(=O)c1ccc(OC(=O)CCc2ccccc2)cc1`, the Potency was inconclusive: 15.1 µM [inhibitor, partial curve].
`COc1ccc2nc(NC(=O)CSc3nnc(N)s3)sc2c1` was tested, and the Potency was inconclusive: 0.675 µM [inhibitor, partial curve, poor fit].
In the case of `CC1CCc2sc(NC(=O)c3ccc(N4C(=O)CCC4=O)cc3)c(C(N)=O)c2C1` (configuration not stated), the Potency is reported as inconclusive: 5.36 µM [inhibitor, single point].
With `CC(C)(C)c1ccc(C(=O)c2c[nH]c(C(=O)NCC3CCCO3)c2)cc1` (configuration not stated) the Potency was inconclusive: 9.53 µM [inhibitor, partial curve].
In the case of `CC(C)c1ccc(NC(=O)CSc2nnc(CN3CCOCC3)n2C)cc1`, the Potency is reported as inconclusive: 37.9 µM [inhibitor, single point].
With `CCOC(=O)c1cnc(-c2ccccc2)nc1N(C)C` the Potency was active: 15.1 µM.
In the case of `Cc1c2ccccc2nc2c(F)c(N(C)C)c(F)c(F)c12`, the Potency is reported as active: 9.53 µM.
With `Cc1ncoc1C(=O)N1CCc2c([nH]c3ccccc23)C1C1CCCCC1` (configuration not stated) the Potency was inconclusive: 23.9 µM [inhibitor, partial curve].
For `Cc1nn(-c2ccccc2)c2sc(-c3nnc(SCC(=O)O)o3)cc12`, the Potency was inconclusive: 23.9 µM [inhibitor, partial curve].
For `C/C(=N\NC(=O)c1nn(C)cc1Br)c1cccc(NC(=O)C2CCCC2)c1`, the Potency was inconclusive: 30.1 µM [inhibitor, partial curve].
`O=C(O)C(Cc1c[nH]c2ccccc12)N1CCS(=O)(=O)CC1` (configuration not stated) was tested, and the Potency was “inactive”.
For `Cc1ccc(OCc2cc(C(=O)NCCn3cccn3)no2)cc1C`, the Potency was inconclusive: 37.9 µM [inhibitor, partial curve, poor fit].
With `CC(C)c1c(C(=O)N/N=C/c2ccc(C(F)(F)F)cc2)nnn1-c1nonc1N` the Potency was active: 16.9 µM.
For `CCOc1ccc(C2C(C(=O)c3cccs3)=C(O)C(=O)N2CCCn2ccnc2)cc1` (configuration not stated), the Potency was inconclusive: 15.1 µM [inhibitor, partial curve].
With `CCCSc1nnc(-c2c[nH]c3ccccc23)n1C` the Potency was active: 15.1 µM.
In the case of `O=C(NCc1ccc(F)cc1)c1cc(-c2cccs2)on1`, the Potency is reported as inconclusive: 37.9 µM [inhibitor, partial curve, poor fit].
In the case of `CCSc1nc(O)c(C2OC(=O)c3c2ccc(OC)c3OC)c(=O)n1CC` (configuration not stated), the Potency is reported as inconclusive: 7.57 µM [inhibitor, partial curve].
`Cc1ccc(-c2ccnc3[nH]n(-c4ccccc4)c(=O)c23)cc1` was tested, and the Potency was inconclusive: 7.57 µM [inhibitor, partial curve, poor fit].
For `Cn1cc(Cl)c(-c2n[nH]c(=S)n2C2CCCCC2)n1`, the Potency was inconclusive: 37.9 µM [inhibitor, partial curve, poor fit].
In the case of `COc1ccc(OCc2nc(-c3ccc(-n4cccc4)cc3)no2)cc1`, the Potency is reported as “inactive”.
`Cc1ccc(/C=N/NC(=O)Cc2cccn2C)cc1` was tested, and the Potency was inconclusive: 23.9 µM [inhibitor, partial curve].
`COc1ccccc1NC(=O)Nc1nn(C)c2cccc(N(C)C)c12` was tested, and the Potency was inconclusive: 33.8 µM [inhibitor, partial curve, poor fit].
With `Cc1cccc(NC(=O)c2c(O)c3ccccc3[nH]c2=O)c1` the Potency was inconclusive: 3.79 µM [inhibitor, full curve].
`N#Cc1c(N)sc2c1CCCCCC2` was tested, and the Potency was inconclusive: 23.9 µM [inhibitor, single point].
With `CCCOC1CCCN(C(=O)c2ccc3oc(C(C)C)nc3c2)C1` (configuration not stated) the Potency was inconclusive: 15.1 µM [inhibitor, partial curve].
With `Cc1c(C(=O)OCC(=O)c2c(N)n(CC(C)C)c(=O)n(C)c2=O)oc2ccccc12` the Potency was “inactive”.
With `Cc1cc(C)c2c(N)c(C(=O)N/N=C/c3cccnc3)sc2n1` the Potency was inconclusive: 13.5 µM [inhibitor, partial curve].
For `CC(=O)c1cccc(N=Cc2c(O)c3ccccc3oc2=O)c1`, the Potency was active: 1.69 µM.
For `O=C(Cc1cccc2ccccc12)N/N=C/c1ccc(Sc2cccc3cccnc23)o1`, the Potency was “inactive”.
`CSc1cccc(NC(=O)c2ccc(Cl)nc2)c1` was tested, and the Potency was inconclusive: 16.9 µM [inhibitor, partial curve].
With `CCOC(=O)c1sc(N(Cc2ccccc2)C(=O)COC(=O)c2ccccc2O)nc1C` the Potency was inconclusive: 16.9 µM [inhibitor, partial curve, poor fit].
